From PMC4336329 (PLoS ONE, 2015)
The campaign covered roughly 310,000 compounds. About 2,200 (0.71%) showed an effect of 50% or more. The effect is printed as a negative number. Some of the results follow.

Molecular target: human ether-à-go-go-related gene (hERG) potassium channel (human, UniProt Q12809)
Assay: primary screen, population patch clamp on CHO cells stably expressing hERG

Sequence of human ether-à-go-go-related gene (hERG) potassium channel (Q12809 whole entry, looked up): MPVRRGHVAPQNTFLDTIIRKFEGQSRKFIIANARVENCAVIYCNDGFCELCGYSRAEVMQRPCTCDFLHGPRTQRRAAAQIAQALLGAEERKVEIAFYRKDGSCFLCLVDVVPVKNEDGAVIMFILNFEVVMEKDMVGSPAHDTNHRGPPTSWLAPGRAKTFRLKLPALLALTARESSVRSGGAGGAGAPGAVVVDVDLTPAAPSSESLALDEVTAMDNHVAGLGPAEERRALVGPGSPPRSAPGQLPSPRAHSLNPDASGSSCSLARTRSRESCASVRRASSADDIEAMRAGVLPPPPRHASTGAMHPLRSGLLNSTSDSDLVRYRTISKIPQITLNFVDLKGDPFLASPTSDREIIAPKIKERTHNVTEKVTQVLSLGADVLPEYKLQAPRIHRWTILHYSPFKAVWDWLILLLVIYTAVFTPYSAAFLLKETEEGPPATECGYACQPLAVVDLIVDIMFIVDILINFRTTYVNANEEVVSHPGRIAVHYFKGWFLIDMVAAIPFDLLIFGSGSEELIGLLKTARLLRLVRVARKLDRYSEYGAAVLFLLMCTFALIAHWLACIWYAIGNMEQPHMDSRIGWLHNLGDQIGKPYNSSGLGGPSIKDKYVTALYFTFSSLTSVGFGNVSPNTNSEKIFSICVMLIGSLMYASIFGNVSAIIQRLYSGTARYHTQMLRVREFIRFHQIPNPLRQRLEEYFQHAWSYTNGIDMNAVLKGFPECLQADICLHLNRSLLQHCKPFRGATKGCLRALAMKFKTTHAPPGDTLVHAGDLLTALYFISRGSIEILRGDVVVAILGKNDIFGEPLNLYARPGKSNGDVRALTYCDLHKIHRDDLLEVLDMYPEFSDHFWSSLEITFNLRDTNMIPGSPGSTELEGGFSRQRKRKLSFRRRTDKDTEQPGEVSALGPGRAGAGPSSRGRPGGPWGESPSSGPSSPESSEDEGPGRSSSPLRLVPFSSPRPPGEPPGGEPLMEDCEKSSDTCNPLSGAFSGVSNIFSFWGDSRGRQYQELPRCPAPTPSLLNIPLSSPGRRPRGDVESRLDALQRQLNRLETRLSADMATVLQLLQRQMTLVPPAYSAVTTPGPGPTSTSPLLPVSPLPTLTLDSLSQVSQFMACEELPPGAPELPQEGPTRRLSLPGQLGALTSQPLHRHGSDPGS

Row | SMILES | hERG current change (%, negative = inhibition) at 1uM
1 | COc1ccc(CCn2c(-c3ccccc3)nc3c(c(=O)c4ccccc4n3C)c2=O)cc1 | 11.3%
2 | O=C1C(c2ccnc3ccccc23)=C(O)c2ccccc21 | 11.6%
3 | Cc1ccc(Cl)c(OCC(=O)N2CCc3ccccc3C2)c1 | 15.5%
4 | CCCNC(=O)c1ccc2c(=O)c(O)c(-c3ccc(F)cc3)[nH]c2c1 | 6.08%
5 | COc1ccc(N(C(=O)CNC(=O)c2cccs2)C(C(=O)NCC2CCCO2)c2ccccc2)c(OC)c1 (stereo not drawn) | 2.9%
6 | CCOc1cc(C2C3=C(CCCC3=O)Nc3nc(C(=O)OC)nn32)ccc1OC (stereo not drawn) | 11.8%
7 | N#C/C(=C/c1ccc(N2CCCCC2)o1)C(=O)NCCc1c[nH]c2ccccc12 | 6.88%
8 | N#Cc1cccc(Oc2ccc(-c3cnc4ccccc4n3)cc2)c1C#N | 4.24%
9 | Cc1cc(C)cc(NC(=O)c2ccc(CN3CCc4ccccc4C3)cc2)c1 | 0.822%
10 | O=c1c2ccccc2c(-c2ccc(Br)cc2)nn1Cc1ccccc1 | 13.5%
11 | CCOc1ccc(C2CC(c3ccccc3C)n3nc(N)nc3N2)cc1 (stereo not drawn) | 8.43%
12 | CCc1ccc(N2CC(C(=O)Nc3cccnc3)CC2=O)cc1 (stereo not drawn) | 4.07%
13 | CSc1ncc(CNc2cc([N+](=O)[O-])ccc2C)c(N)n1 | 17.3%
14 | Cc1sc2nc(CN3CCCCC3)nc(N3CCN(C(=O)c4ccco4)CC3)c2c1C | -45.2%
15 | CCOc1ccc(C(=O)N(c2ccccn2)C2CCCCC2)cc1 | 2.99%
16 | CCOc1ccccc1-c1cc(C(=O)N/N=C/c2cccnc2)c2ccccc2n1 | 8.18%
17 | CCOc1ccc(N(CC(=O)Nc2cccnc2)S(=O)(=O)c2ccc(C)cc2)cc1 | 4.55%
18 | COc1cc2c(cc1OC)N1C(=O)CC(OCC(=O)O)C3C4CC5(CCN5C(=O)C4=O)C2C31 (stereo not drawn) | 20.8%
19 | Cc1ccc(/C(O)=C/c2nc3ccccc3oc2=O)cc1 | 12.7%
20 | O=C(O)c1ccc2nc(-c3ccccc3)c(-c3ccccc3)nc2c1 | 5.64%
21 | CC(C)(C)C(=O)Nc1ccc(-c2cn3cccnc3n2)cc1 | -0.16%
22 | CCOC(=O)C1CCN(C(=O)c2ccc(NC(=O)C3CCCO3)cc2)CC1 (stereo not drawn) | -18.2%

Row | SMILES | hERG current change (%, negative = inhibition) at 1uM
23 | Cc1cc(C)cc(NC2=NC3(CCCCC3)N=C(N)N2)c1 | 11%
24 | CCOC(=O)C1=C(C)NC2(O)c3ccccc3C(=O)C12O (stereo not drawn) | 2.48%
25 | O=C(O)c1cc(-c2cccs2)nc2ccc(Br)cc12 | 10.1%
26 | CS(=O)(=O)N(CC(=O)Nc1ccc(S(=O)(=O)N2CCCC2)cc1)c1cccc(F)c1 | 8.7%
27 | Cc1ccc(CNC(=O)C2CCN(C(=O)c3cccc(Cl)c3)CC2)cc1 | 3.01%
28 | Cc1ncc([N+](=O)[O-])n1CC(=O)Nc1cc(Cl)ccc1Cl | 19.7%
29 | Cc1occc1C(=O)NC1CCCN(Cc2ccc(Cl)cc2)C1 (stereo not drawn) | 5.08%
30 | S=c1nc(NCc2ccc3c(c2)OCO3)c2ccccc2[nH]1 | 13.8%
31 | O=C(Nc1ccc(CN2CCOCC2)cc1)c1cccc(F)c1 | 8.16%
32 | COc1ccc(C(=O)NC2CCCc3c2cnn3-c2ccc(C)c(C)c2)c(OC)c1OC (stereo not drawn) | 13.2%
33 | Cc1ccc(/C=N/NC(=O)C2CC(=O)N(c3ccccc3)C2)s1 (stereo not drawn) | -1.7%
34 | CC1CCN(S(=O)(=O)c2ccc(NC(=O)CN3CCCC3)cc2)CC1.O=C(O)C(=O)O | 5.7%
35 | COc1ccc(CCNC(=O)c2nnn(-c3ccccc3OC)c2N)cc1OC | 9.98%
36 | CCC(=O)NCc1nc2ccccc2n1Cc1ccccc1F | 7.2%
37 | CCOC(=O)c1ccccc1NC(=O)c1ccc(NS(C)(=O)=O)cc1 | -36.4%
38 | O=C(CNC(=O)c1ccccc1F)OC(C(=O)Nc1cc(C(F)(F)F)ccc1Cl)c1ccccc1 (stereo not drawn) | 8.23%
39 | Cc1ccc(Nc2ccc(S(=O)(=O)N3CCOCC3)cc2[N+](=O)[O-])cc1C | 10.5%
40 | O=C(CSc1nc2ccccc2[nH]1)NC1CCCC1 | 12%
41 | COc1ccc(C(=O)N(CN2CCCC2=O)c2cc(C)on2)cc1OC | -15.9%
42 | Cc1ccc(N2CC(C(N)=O)CC2=O)cc1 (stereo not drawn) | 4.64%
43 | Cc1cc(C=O)c(C)n1-c1cc(C(F)(F)F)ccc1N1CCOCC1 | 14.4%
44 | CC1CCN(C(=O)CSc2nnc(CSc3ncccn3)n2C)CC1 | 18.9%

Row | SMILES | hERG current change (%, negative = inhibition) at 1uM
45 | O=C1c2ccccc2C(=O)N1CCCCn1c(=O)oc2ccccc21 | 1.48%
46 | Cc1nn2c(nc(N3CCOCC3)c3ccccc32)c1C=C(C#N)C#N | -22.6%
47 | COC(=O)c1cnc(SCc2ccc([N+](=O)[O-])cc2)n1C | 0.751%
48 | CCOC(=O)c1nnn(-c2nonc2N)c1-c1cccs1 | 5.98%
49 | O=C(COC(=O)Cc1ccccc1F)Nc1ccc2c(c1)OCCO2 | 10.8%
50 | N#C/C(=C\c1ccc(Sc2nc3ccccc3[nH]2)o1)c1ccccc1 | -1.26%
51 | Cc1c(Cl)cnc(NC(=O)CSc2n[nH]c(N)n2)c1Cl | 6.43%
52 | CN1CCc2nc3ccc(Cl)cc3c(-c3ccccc3Cl)c2C1.Cl | -4.85%
53 | CC(C)(C)c1n[nH]c(=S)n(/N=C/c2cccs2)c1=O | 17.2%
54 | CN(CC(=O)Nc1ccc(Cl)c(C(F)(F)F)c1)C(=O)Cc1ccsc1 | 9.92%
55 | Cc1ccc(-n2nnnc2/C=C\Nc2cc(C)on2)cc1 | 9.47%
56 | O=C(Nc1nnc(-c2ccc(F)cc2)o1)c1ccco1 | 8.5%
57 | COc1cccc(C=NCC(C)N=Cc2cccc(OC)c2O)c1O (stereo not drawn) | 1.06%
58 | Cc1ccc(OCCN(C)C(=O)C2CCC(=O)N(CCCN3CCOCC3)C2)cc1 (stereo not drawn) | 11.3%
59 | O=C(O)c1coc2ccccc12 | 16.1%
60 | O=c1ccn(-c2ccccc2)[nH]1 | 8.25%
61 | O=C(CSc1ccc(Br)c2cccc(Cl)c12)Nc1ccc(S(=O)(=O)Nc2nccs2)cc1 | 15.1%
62 | CCc1ccc2c(c1)cc(CN(C(=S)Nc1ccccc1)C1CC1)c1nnnn12 | -1.57%
63 | CCCCCn1c(CN2CCN(C(=O)OCC)CC2)nc2c1c(=O)[nH]c(=O)n2C | -39%
64 | Nc1nc(NC(=O)c2ccco2)nn1-c1ccccc1 | 9.23%
65 | N/C(Cc1ccc(Cl)cc1Cl)=N\OC(=O)c1ccccc1 | 7.82%
66 | Cn1c(CNc2ccc(Cl)cc2)nc2ccccc21 | 4.16%

Row | SMILES | hERG current change (%, negative = inhibition) at 1uM
67 | CCN(CC)CCNC(=O)Cn1c(C)cc2ccccc2c1=O | -4.85%
68 | CN(C)CCCNC(=O)/C(=C/c1ccc(-c2ccc([N+](=O)[O-])cc2)o1)NC(=O)c1ccccc1 | -52.5%
69 | Oc1cccc(C(Nc2nccs2)c2ccc3cccnc3c2O)c1 (stereo not drawn) | -2.25%
70 | Cc1cc(C)cc(N(C(C)C(=O)N2CCCCC2)S(C)(=O)=O)c1 (stereo not drawn) | 9.28%
71 | O=C(CC1SC(N2CCCCC2)=NC1=O)Nc1ccc(C(=O)Nc2ccccc2)cc1 (stereo not drawn) | 4.44%
72 | CCOc1ccc(C2=NNC(c3cccs3)=Nc3ccc(OC)cc32)cc1OCC | 0.309%
73 | CC(=O)Nc1ccc(NC(=O)CN(c2cc(Cl)ccc2Cl)S(C)(=O)=O)cc1 | 13.3%
74 | O=C(NCc1ccc(Cl)cc1)N1CCN(Cc2ccccc2)CC1 | 5.53%
75 | Cc1ccc(C)c2[nH]c(=O)c(C(c3nnnn3Cc3ccco3)N3CCc4ccccc4C3)cc12 (stereo not drawn) | 5.56%
76 | COc1ccc(OCC(=O)NS(=O)(=O)c2ccccc2)cc1 | 12.1%
77 | Cc1ccc(Cn2ccsc2=NC(=O)COC(=O)c2ccc(O)cc2O)cc1 | 11.2%
78 | O=C(NC1CCCCC1)C(=S)N1CCCC1 | 12.5%
79 | CCOc1ccc(OCCC(=O)N(CC(=O)Nc2ccccc2C(F)(F)F)Cc2ccco2)cc1 | 10.2%
80 | CC(C)(C)NS(=O)(=O)c1ccc2nc(NC(=O)Cc3cccs3)sc2c1 | 0.0479%
81 | C=CCNC(=O)C1CC2Cn3c(nc4cc5ccccc5cc43)C2N1C (stereo not drawn) | 8.26%
82 | COc1cc(C2C(C(=O)C(C)(C)C)=C(O)C(=O)N2Cc2ccccc2)ccc1O (stereo not drawn) | 2.95%
83 | CCN(CC)CCNC(=O)c1ccc(NC(=O)C2CC(=O)N(CCc3ccc(OC)c(OC)c3)C2)cc1 (stereo not drawn) | 20.6%
84 | CC(=O)Nc1ccc(NC(=O)C(C)OC(=O)CSCc2cccc(Cl)c2)cc1 (stereo not drawn) | 9.94%
85 | Cc1ccc(S(=O)(=O)c2c(N)n(CCC(C)C)c3nc4ccccc4nc23)cc1 | 2.31%
86 | Cc1cc(CNC(=O)C(C)n2cc([N+](=O)[O-])cn2)c2ccccc2n1 (stereo not drawn) | 1.64%
87 | CCc1cccc(CC)c1NC(=S)NCc1nc2ccccc2[nH]1 | 9.51%
